From paper PMC6919601, “Identification of Plasmodium dipeptidyl aminopeptidase allosteric inhibitors by high throughput screening” (PLoS ONE, 2019) come the findings set out here.

About 230 (0.21%) of roughly 110,000 compounds showed an effect of 50% or more. Some of the results follow.
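Note: 30 min substrate incubation versus DMSO and 10 µM JCP410 controls.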

The target in this experiment is DPAP1 (Plasmodium falciparum, UniProt Q8IIJ9). The experiment is described as follows: primary screen, percent inhibition; read by cleavage of a fluorogenic dipeptide substrate; higher = more effect of the substance. Set-up: species or system P. falciparum D10 trophozoite lysates; single well.
Sequence of DPAP1 (Q8IIJ9 whole entry, looked up): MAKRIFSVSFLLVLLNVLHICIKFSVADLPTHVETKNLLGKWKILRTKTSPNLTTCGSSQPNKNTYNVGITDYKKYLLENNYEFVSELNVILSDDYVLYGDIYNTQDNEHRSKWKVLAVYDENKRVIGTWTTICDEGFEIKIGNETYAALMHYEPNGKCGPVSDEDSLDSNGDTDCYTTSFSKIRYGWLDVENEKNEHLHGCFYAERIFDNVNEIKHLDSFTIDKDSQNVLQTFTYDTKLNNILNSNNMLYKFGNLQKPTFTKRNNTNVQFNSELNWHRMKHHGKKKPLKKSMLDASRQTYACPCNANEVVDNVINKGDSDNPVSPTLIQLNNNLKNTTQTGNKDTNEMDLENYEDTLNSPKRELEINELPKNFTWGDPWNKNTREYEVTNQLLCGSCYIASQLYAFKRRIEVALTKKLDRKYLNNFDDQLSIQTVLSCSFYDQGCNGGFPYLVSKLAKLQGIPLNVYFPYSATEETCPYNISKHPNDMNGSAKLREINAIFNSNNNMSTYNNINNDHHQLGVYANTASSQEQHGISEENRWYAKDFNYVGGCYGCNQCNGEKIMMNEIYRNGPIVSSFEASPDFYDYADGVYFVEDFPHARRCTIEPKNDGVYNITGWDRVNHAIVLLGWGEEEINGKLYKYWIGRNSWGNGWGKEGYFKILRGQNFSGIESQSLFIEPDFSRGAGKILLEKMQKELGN
For `OC(COCc1ccccc1)CN1CCN(c2ccc(F)cc2)CC1` (stereo not drawn), the “% Inhibition @ 10 uM” value is listed as 0.565%. As for `O=C(CSC(=S)N1CCCC1)c1ccccc1`, the “% Inhibition @ 10 uM” value is given as -0.192%. For the molecule `Cc1ccc(NS(=O)(=O)c2cc(Cl)ccc2Cl)cc1Cl`, the “% Inhibition @ 10 uM” value is listed as 0.135%. On to `CCOc1ccc(/C=C2\C(=O)ON=C2c2ccc(Cl)cc2)c(OCC)c1`, for which the “% Inhibition @ 10 uM” value was -0.386%. The result for `O=C1CC(c2ccc3c(c2)OCO3)C2=C(CC(c3ccc(F)cc3)CC2=O)N1` (stereo not drawn) reads -2.24%; that for `Cc1ccc(Cn2c(C)c(CNCCc3ccccc3Cl)c(C(=O)O)c2C)cc1`, -3.67%; that for `O=C(NCCc1ccc(Cl)cc1)c1cc(-c2cccnc2)nc2ccccc12`, -0.519%.

In the case of `Cc1cc2nc3n(c2cc1C)CCN3`, the “% Inhibition @ 10 uM” value came to 0.392%. On to `COCc1cc(C)nc2sc(C(=O)NCc3ccccc3)c(-n3cccc3)c12`, for which the “% Inhibition @ 10 uM” value is reported as -4.35%. The result for `Cc1ccc2nsnc2c1S(=O)(=O)N1CCOCC1` reads -5.01%.

On to `Cc1cc2nc(COc3ccc(Cl)cc3)cc(=O)n2o1`, for which the “% Inhibition @ 10 uM” value is -2.19%.

For `O=C(c1ccccc1)c1ccc(Oc2ccc(C(=O)O)c(C(=O)O)c2)cc1`, the “% Inhibition @ 10 uM” value is -0.128%. `CC(=O)NS(=O)(=O)c1ccc(NC(=O)[C@@H]2CCCC[C@@H]2C(=O)O)cc1`: the “% Inhibition @ 10 uM” value was -4.43%. Then `CC1CCCC(C)N1C(=O)c1cc2nc(-c3ccco3)cc(C(F)(F)F)n2n1` (stereo not drawn), with 4.57%; and `O=C(CCc1ccccc1)N1N=C(c2ccncc2)CC1(O)C(F)(F)F` (stereo not drawn), with 2.23%. `COc1cccc(CN(C(=O)c2oc3cc(C)c(C)cc3c2C)C2CCS(=O)(=O)C2)c1` (stereo not drawn): the “% Inhibition @ 10 uM” value is recorded as -1.35%.

As to `CCNC(=S)NCCc1ccc(S(N)(=O)=O)cc1`, the “% Inhibition @ 10 uM” value is -1.81%.

For the molecule `CC12CC(O)C3(F)C(CCC4=CC(=O)C=CC43C)C1CC=C2C(=O)CO` (stereo not drawn), the “% Inhibition @ 10 uM” value is reported as -4.93%. Then `Cc1ccc(CN2CCN(S(=O)(=O)c3ccccc3)CC2)cc1`, with -7.18%; and `COC(=O)C1=NNC2C(=O)N(c3ccccc3OC)C(=O)C12` (stereo not drawn), with -1.85%. In the case of `CN1CCN(c2nc(-c3ccc(C(=O)N[C@@H](Cc4cc(Cl)c(O)c(Cl)c4)C(=O)NCC#N)cc3)cs2)CC1`, the “% Inhibition @ 10 uM” value is given as -6.46%. The result for `COc1ccc(C2c3c(n(C)c4ccccc34)C(=O)N2CC(=O)NC2CCCCCC2)cc1` (stereo not drawn) reads 1.4%; that for `CC(=O)N1CCC(N2CCN(c3ccc(Cl)cc3)CC2)CC1`, -0.292%; that for `COc1ccc(-c2noc(N3CCC(C(=O)NCCc4ccc(OC)c(OC)c4)CC3)n2)cc1`, -4.37%. Then `CCOc1ccc(NC(=O)c2ccccc2Cl)cc1`, with -3.72%; and `O=C(O)C(Cc1c[nH]c2ccccc12)Nc1c2ccccc2nc2ccccc12` (stereo not drawn), with -11.4%. As to `Cc1cc(C)nc(/N=C(/NC(=O)Nc2ccccc2)NC2CCCC2)n1`, the “% Inhibition @ 10 uM” value was -5.3%.

For `CCc1ccc(OCC(=O)Nc2ccc(OC)cc2)cc1`, the “% Inhibition @ 10 uM” value was -6.82%. With `Cc1ccccc1C(=O)Nc1sc2c(c1C(=O)O)CCC2`, the “% Inhibition @ 10 uM” value is on record as -5.03%. In the case of `Cc1cc(NS(=O)(=O)c2ccc(NC(=O)C3CCCCC3)cc2)no1`, the “% Inhibition @ 10 uM” value is given as -14.6%. For the molecule `COc1ccc(NC(=O)C2=C(C)NC(=O)NC2c2ccc(Br)cc2)cc1` (stereo not drawn), the “% Inhibition @ 10 uM” value turned out to be 57.9%. For `CC(NC(=O)C1CCN(c2cnccn2)CC1)c1cccs1` (stereo not drawn), the “% Inhibition @ 10 uM” value worked out at 2.25%.

For the molecule `COc1ccccc1S(=O)Cc1ccc(C(=O)NCCCN2CCOCC2)o1` (stereo not drawn), the “% Inhibition @ 10 uM” value was 0.458%. For `Cc1ccc(CNC(=O)Cn2cc3c(n2)CCCC3)cc1`, the “% Inhibition @ 10 uM” value amounted to 0.137%. Consider `Clc1cccc2c(NCc3ccc4c(c3)OCO4)cnnc12`, for which the “% Inhibition @ 10 uM” value was determined as 3.43%. Then `CCOC(=O)c1sc(NC(=O)COc2ccccc2OC)nc1C`, with 6.42%; and `O=C(NCC1CCCO1)c1ccc(Cl)cc1Cl` (stereo not drawn), with -2.54%. Take `O=C(O)CSc1nc2c(cnn2-c2ccccc2)c(=O)n1-c1ccc(Br)cc1`: the “% Inhibition @ 10 uM” value was determined as 5.94%. Turning to `Cn1c(SCc2ccc(F)cc2)nc2ccc(C(=O)NCCc3ccc(S(N)(=O)=O)cc3)cc21`, the “% Inhibition @ 10 uM” value is -1.38%. As to `Cc1ccc(CNC(=O)c2ccc(Cn3nc(C)c(Cl)c3C)o2)cc1`, the “% Inhibition @ 10 uM” value is recorded as -3.13%.

As to `CCOc1ccc(C(=O)Nc2cccc(C(=O)O)c2)cc1Cl`, the “% Inhibition @ 10 uM” value came to 5.12%.

`CC(C)c1ccc(C2C=C(c3cccnc3)Nc3ncnn32)cc1` (stereo not drawn): the “% Inhibition @ 10 uM” value was 3.26%. Then `COc1ccc(C2CC(=O)n3nc(C45CC6CC(CC(C6)C4)C5)nc3S2)cc1OC` (stereo not drawn), with 6.76%; and `Nc1n[nH]c(SCc2cc(=O)n3nc(C4CCCCC4)sc3n2)n1`, with -2.28%. As to `COc1ccccc1/C=[N+]1\NC(=O)C(NC(=O)c2cccc(C)c2)C1c1ccc(Cl)cc1` (stereo not drawn), the “% Inhibition @ 10 uM” value was 0.413%. Consider `COCCNC(=O)Cn1ccc2cc(S(=O)(=O)N3CCCCC3)ccc21`, for which the “% Inhibition @ 10 uM” value turned out to be 3.97%. As to `COCCNC(=O)c1ccc(-n2c(C)cc3c2CCCC3)cc1`, the “% Inhibition @ 10 uM” value is listed as -6.21%. For `NS(=O)(=O)c1ccc(NC(=O)COc2ccccc2Cl)cc1`, the “% Inhibition @ 10 uM” value is listed as -6.16%. For `CCc1ccc(CNc2ccc(C(=O)O)cc2)cc1`, the “% Inhibition @ 10 uM” value is -5.54%. For `CCN1C(=O)NC(=O)/C(=C\c2cn(CC(=O)NCCOC)c3ccccc23)C1=O`, the “% Inhibition @ 10 uM” value was determined as 3.79%. The result for `O=C(NCc1cccnc1)c1ccc(COc2ccccc2Cl)o1` reads -17.2%; that for `CC(C)(CO)NC(=O)c1cc(-c2ccc(F)cc2)no1`, 4.85%. The result for `O=C(COc1ccc(S(=O)(=O)NC2CCCCC2)cc1)NCc1cccnc1` reads 5.99%; that for `Cc1ccc(C(=O)n2cnc3ccccc32)cc1C`, 21.9%; that for `CC1=C(c2ccc(C)c(C)c2)S(=O)(=O)N=C1N1CCC(C(=O)NCCCc2ccccc2)CC1`, 9.17%. Take `O=C(Nc1ccc(Cl)cn1)c1ccc2c(c1)OCCO2`: the “% Inhibition @ 10 uM” value is reported as 4.07%.

Regarding `Cc1cc(=O)n2nc(NC(C)C(=O)NCc3ccc(OC(C)C)cc3)sc2n1` (stereo not drawn), the “% Inhibition @ 10 uM” value is reported as -2%. With `CCN(CC)CCCNC(=O)CSc1nc(-c2ccc(F)cc2)cc(C(F)(F)F)n1`, the “% Inhibition @ 10 uM” value is on record as -0.958%.

Take `COc1cccc(C(=O)Nc2sc3c(c2C(N)=O)CCC(C)C3)c1` (stereo not drawn): the “% Inhibition @ 10 uM” value is listed as -7.08%. Turning to `Cc1ccc(CCNC(=O)CCS(=O)(=O)Cc2ccccc2Cl)cc1`, the “% Inhibition @ 10 uM” value is -0.0542%. The result for `O=C(c1ccccc1Br)N1CCc2ccccc2C1` reads 0.273%. In the case of `N#CC1=C(N)Oc2c(c(=O)oc3ccccc23)C1c1ccc(F)c(Br)c1` (stereo not drawn), the “% Inhibition @ 10 uM” value was 3.03%. As for `CCOC(=O)c1[nH]c(C)c(CNCCc2ccc(OC)c(OC)c2)c1C`, the “% Inhibition @ 10 uM” value is -0.834%. `O=C(NCC1CCCO1)c1ccc(COc2ccc(Br)cc2)cc1` (stereo not drawn): the “% Inhibition @ 10 uM” value is recorded as 2.09%. The result for `Cc1ccc(C(=O)C2=C(O)C(=O)N(c3nnc(C)s3)C2c2cccc(Oc3ccccc3)c2)cc1` (stereo not drawn) reads 0.487%; that for `CC1(C)[C@H]2CC=C(CN3CCCC(CO)C3)[C@@H]1C2` (stereo partly drawn), 4.55%. With `Cc1ccccc1C(=O)Nc1nc2ccccc2s1`, the “% Inhibition @ 10 uM” value is listed as 5.07%. As for `Cc1ccc2nc(NC(=O)C(Cc3ccccc3)n3cccc3)sc2c1` (stereo not drawn), the “% Inhibition @ 10 uM” value was -4.21%. As to `O=C1CCCC(=O)C1=CNc1cccc2ccccc12`, the “% Inhibition @ 10 uM” value is -4.43%. Take `COC(=O)c1c(C)oc2ccc(OC/C=C/c3ccccc3)cc12`: the “% Inhibition @ 10 uM” value worked out at 1.37%.

Take `C=CCN1C(=S)NC2c3cc(Br)ccc3OC1(C)C2C` (stereo not drawn): the “% Inhibition @ 10 uM” value is listed as -4.23%. Regarding `CCOC(=O)CCCNC(=O)CCCNC(=O)C(c1ccccc1)c1ccccc1`, the “% Inhibition @ 10 uM” value is on record as 3.18%. With `O=C(c1cn(-c2ccccc2)nc1-c1ccccc1)N1CCCCC1`, the “% Inhibition @ 10 uM” value is recorded as -4.06%. For `Cc1ccc(C2C=C(c3ccccc3)Nc3nc(N4C(=O)c5ccccc5C4=O)nn32)cc1` (stereo not drawn), the “% Inhibition @ 10 uM” value is -4.77%. As for `Cc1ccccc1NC(=O)CN1C(=O)S/C(=C/c2ccc(O)cc2)C1=O`, the “% Inhibition @ 10 uM” value amounted to 15%. With `Cc1nonc1N(Cc1ccc(Cl)cc1Cl)S(=O)(=O)c1ccccc1`, the “% Inhibition @ 10 uM” value is on record as -7.01%. For the molecule `COc1ccc(-c2noc(CC(=O)N(C)CCC#N)n2)cc1`, the “% Inhibition @ 10 uM” value worked out at 7.33%.

Take `CC1=C(C(=O)Nc2ccc(Br)cn2)C(c2cnn(C)c2C)C2=C(O)CCCC2=N1` (stereo not drawn): the “% Inhibition @ 10 uM” value stood at 0.76%. Consider `CCOC(=O)C1(C)C=C(Nc2ccc(Cl)cc2)C(=O)N1c1ccc(Cl)cc1` (stereo not drawn), for which the “% Inhibition @ 10 uM” value is -4.93%.

In the case of `O=C1C2C3C=CC(C3)C2C(=O)N1CCc1ccccc1` (stereo not drawn), the “% Inhibition @ 10 uM” value was 6.21%. The result for `CCCOc1c(Cl)cc(/C=C2/NC(=S)NC2=O)cc1OC` reads 1.4%. Consider `Cc1nnc2c(NCc3ccc(C(=O)O)cc3)nc3ccccc3n12`, for which the “% Inhibition @ 10 uM” value turned out to be 3.17%. As for `Fc1cc(Br)ccc1-n1ncnc1-c1ccc(Cl)cc1`, the “% Inhibition @ 10 uM” value is -3.74%. `O=c1oc2ccccc2c(N2CCN(c3ccccn3)CC2)c1CN1CCCC1`: the “% Inhibition @ 10 uM” value was -1.68%. As for `CCOC(=O)N1CCN(S(=O)(=O)c2ccc(S(N)(=O)=O)cc2)CC1`, the “% Inhibition @ 10 uM” value is on record as -5%. For `COc1ccc(-c2nc(-c3cccnc3)no2)cc1`, the “% Inhibition @ 10 uM” value is given as 3.32%.

In the case of `Cc1ccc(NC(=O)C2c3ccccc3-c3ccccc32)cc1Br`, the “% Inhibition @ 10 uM” value is on record as 6.4%. For `Cc1ccc2c(c1)C1CN(C)CCC1N2S(C)(=O)=O` (stereo not drawn), the “% Inhibition @ 10 uM” value is recorded as 0.605%. Regarding `Oc1cc(-c2ccccc2)c2c(n1)CCCC2`, the “% Inhibition @ 10 uM” value stood at 6.13%. Turning to `COc1ccc(N(CC(=O)Nc2cccc3ccccc23)S(=O)(=O)c2ccccc2)c(OC)c1`, the “% Inhibition @ 10 uM” value was 3.69%. The result for `Cc1cccc(NC(=O)C(CCS(C)(=O)=O)N2Cc3ccccc3C2=O)n1` (stereo not drawn) reads 5.32%. Regarding `Cc1nc2cc(-c3ccccc3)nn2c(C)c1CC(=O)NCc1ccc2c(c1)OCO2`, the “% Inhibition @ 10 uM” value stood at 0.953%. With `O=C(CN1C(=O)S/C(=C\c2ccc3c(c2)OCO3)C1=O)c1ccc(Cl)cc1`, the “% Inhibition @ 10 uM” value is reported as -7.25%.

Consider `CC(C)(C)NC(=O)C1CCCN1S(=O)(=O)c1ccc(F)cc1` (stereo not drawn), for which the “% Inhibition @ 10 uM” value was 3.77%.

In the case of `O=C(O)c1ccc(CN2CCN(c3ccccc3)CC2)cc1`, the “% Inhibition @ 10 uM” value is -4.35%. As for `CCc1nnc(NS(=O)(=O)c2ccc(Cl)cc2)s1`, the “% Inhibition @ 10 uM” value is reported as -4.43%.

With `CCCNC(=O)CC(c1cc(OC)c(OC)c(OC)c1)N1Cc2ccccc2C1=O` (stereo not drawn), the “% Inhibition @ 10 uM” value worked out at 7.08%. `CSc1ccc(C2C(C#N)=C(N)N(c3nc[nH]n3)C3=C2C(=O)CC(C)(C)C3)cc1` (stereo not drawn): the “% Inhibition @ 10 uM” value is given as -3.63%.

Take `Cc1cccc(Cn2c(NCc3ccccc3)nc3c2c(=O)n(C)c(=O)n3C)c1`: the “% Inhibition @ 10 uM” value stood at 10.8%.
